# Assay results published in PubChem BioAssay (NCATS).
# Inconclusive results, whose numbers are uncertain, are shown with a selection of clear calls. For part of these data: Where the call is inconclusive, the potency comes from a doubtful curve fit. Calls of active or inactive are those of the source. Unless noted, calls follow the shape of the dose curve; as a rule, active = well fitted curve in the direction sought with a large enough effect; inconclusive = small, poorly fitted or top-dose-only effect, or another doubt; inactive = no such curve, though single readings can be large; an effect the other way counts as inactive or inconclusive. Where a SMILES comes first, the peptide text is derived from it. The star is where a group is joined. AMC = Cc1cc(=O)oc2cc(N*)ccc12; Cbz = O=C(OCc1ccccc1)*
# Experiments:
# [1] = Primary qHTS for inhibitors of nuclear receptor binding SET domain protein 2 (NSD2) in an RCH-ACV wild type WT cells (2C) (AID 1645877); details: activity change, negative = cell killing: at 44.9 µM (top of the series) unless noted; also: nearly all actives have a fitted effect of over 70% in size; also: potency is read from the fitted curve at half-maximal effect; as to activity change, negative = cell killing: % is scaled to controls: 0 for no effect and ±100 for the full control effect
# [2] = Primary redox qHTS assay for identification of artifact compounds. (AID 1845223); details: Amplex Red/HRP redox cycling with DTT, fluorescence; redox activity (% of DA3003): at 53.8 µM (top of the series); also: potency is read from the fitted curve at half-maximal effect
# Procedure, shortened: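 Redox-cycling detection via DTT (250 uM final) oxidation coupled to Amplex Red (25 uM)/HRP (250 mU/mL) in HBSS. 15 min preincubation plus 30 min after DTT, room temperature. Ex/Em 525/598 nm; 4-parameter Hill fit against DMSO and 10 uM DA3003.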
# [3] = test system: HEK293; test: Cytotoxic Profiling of Annotated Libraries Using Quantitative High-Throughput Screening (AID 1296008); details: Five cell lines viability, CellTiter-Glo ATP luminescence, 48-72 h; max response: stronger effect = lower value; also: nearly all actives have a fitted effect of over 60% in size; also: potency is read from the fitted curve at half-maximal effect; as to max response: % is scaled to controls: 0 for no effect and ±100 for the full control effect
# Procedure, shortened: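 Compounds were pin-transferred onto cells and incubated 48 or 72 hr at 37 degree Celsius, 95% humidity. CellTiter-Glo was added, plates sat 10 min at room temperature, then ATP-coupled luminescence was imaged as the viability read-out.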
# [4] = test system: SKOV3; test: Primary qHTS to identify gynecologic anti-cancer compounds using libraries of approved drugs and bioactive compounds (AID 1345084); details: Gynecologic cancer cell panel viability, ATPlite luminescence, 48 h; series mostly up to 57.5 µM; also: nearly all actives have a fitted effect of over 55% in size; also: potency is read from the fitted curve at half-maximal effect; as to activity change, negative = cytotoxicity: % is scaled to controls: 0 for no effect and ±100 for the full control effect
# Procedure, shortened: (§1)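 48 h compound exposure at 37 C, 5% CO2; five-point qHTS. ATPlite luminescence readout of cell ATP.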
# [5] = test system: Tov-21-G; test: as above; details: Gynecologic cancer cell panel viability, ATPlite luminescence, 48 h; activity change, negative = cytotoxicity: at 57.5 µM (top of the series) unless noted
# Procedure, shortened: as §1
# [6] = P-glycoprotein substrates identified in KB-8-5-11 adenocarcinoma cell line, qHTS therapeutic library screen (AID 1346987); also: nearly all actives have a fitted effect of over 65% in size
# Procedure, shortened: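 Luminescence from CellTiter-Glo, read 5 min after addition, quantified survival of KB-8-5-11 (P-gp-overexpressing) cells exposed to compounds for 72 h. AC50 was derived from concentration-response curves.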
# [7] = test system: Zika virus NS2B-NS3 protease (unlinked complex); test: Primary screen GU Rhodamine qHTS for Zika virus inhibitors: Unlinked NS2B-NS3 protease assay (AID 1347159); also: % is scaled to controls: 0 for no effect and ±100 for the full control effect; nearly all actives have a fitted effect of over 60% in size
# Procedure, shortened: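 Unlinked NS2B/NS3, 25 nM; Rhod110 peptide, 1.5 microM; compounds, up to 114 microM. Reaction run 15 min at RT in 10 mM Tris-HCl pH 8.0, 0.01% Tween 20; kinetic fluorescence change fitted with a 4-parameter Hill model.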
# [8] = test system: Zika virus NS2B-NS3 protease (linked construct); test: Primary screen NINDS Rhodamine qHTS for Zika virus inhibitors (AID 1347160); details: activity change, negative = inhibition: at 57.1 µM (top of the series) unless noted; also: potency is read from the fitted curve at half-maximal effect; nearly all actives have a fitted effect of over 55% in size
# Procedure, shortened: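 Single-chain NS2B-NS3 protease, 25 nM, pH 8.0; compounds preincubated 15 min. Activity: Rhodamine110 release from 1.5 microM substrate over 15 min, room temperature, data fitted to 4-parameter Hill.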
# [9] = biological target: Glutathione peroxidase 1 (Homo sapiens) (UniProt P07203); test: Primary qHTS Assay for Inhibitors of Recombinant Selenoprotein Glutathione Peroxidase 1 (GPX1) (AID 1845191); details: activity, negative = inhibition: at 48.8 µM (top of the series); also: potency is read from the fitted curve at half-maximal effect; nearly all actives have a fitted effect of over 65% in size
# UniProt P07203, sequence (P07203 whole entry, looked up): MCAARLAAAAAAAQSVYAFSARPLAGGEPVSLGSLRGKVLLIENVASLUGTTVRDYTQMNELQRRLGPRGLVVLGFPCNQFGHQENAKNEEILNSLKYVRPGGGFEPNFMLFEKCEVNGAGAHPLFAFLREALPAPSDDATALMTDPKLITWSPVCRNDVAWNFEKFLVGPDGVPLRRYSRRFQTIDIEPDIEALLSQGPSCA
# Procedure, shortened: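 GPX1 10 nM, GR 100 nM, GSH 1 mM, NADPH 0.5 mM, CHP 0.5 mM (final). 30-min cpd preincubation, RT. Ex340/Em450 read t=0, t=15 min.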
# [10] = biological target: Phospholipid hydroperoxide glutathione peroxidase GPX4 (Homo sapiens) (UniProt P36969); test: Primary qHTS Assay for Inhibitors of Recombinant Selenoprotein Glutathione Peroxidase 4 (GPX4) (AID 1845192); also: potency is read from the fitted curve at half-maximal effect; nearly all actives have a fitted effect of over 65% in size
# UniProt P36969, sequence (P36969 whole entry, looked up): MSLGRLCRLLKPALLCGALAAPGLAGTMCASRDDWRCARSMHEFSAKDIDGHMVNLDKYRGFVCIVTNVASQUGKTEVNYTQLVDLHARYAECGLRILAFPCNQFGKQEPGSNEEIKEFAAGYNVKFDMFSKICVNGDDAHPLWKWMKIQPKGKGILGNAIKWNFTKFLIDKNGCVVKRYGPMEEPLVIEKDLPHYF
# Procedure, shortened: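 qHTS, GR-coupled: GPX4 200 nM + cpd 30 min RT → GSH 1 mM, NADPH 0.5 mM, GR 100 nM → CHP 0.5 mM start; fluor 340/450 at t0 and t15 min; no-enzyme wells as control.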
# [11] = Primary qHTS for inhibitors of nuclear receptor binding SET domain protein 2 (NSD2) in an isogenic RCH-ACV NSD2 p.E1099K mutant (9B) (AID 1645876); also: potency is read from the fitted curve at half-maximal effect; nearly all actives have a fitted effect of over 70% in size
# [12] = qHTS to identify inhibitors of the type 1 interferon - major histocompatibility complex class I in skeletal muscle: primary screen against the NCATS Mechanism Interrogation Plate v5.0 (MIPE) Libary (AID 1347411); details: iHSKM cells + IFN-b, HiBiT-tagged MHC-I luminescence, 24 h; activity change, negative = inhibition: at 45.8 µM (top of the series);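 also: plate controls were vehicle for no effect and reference inhibitor for full effect; nearly all actives have a fitted effect of over 65% in size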
# Procedure, shortened: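 Seed engineered human myoblasts (HLA-B HiBit) in medium without dexamethasone containing 4 ng/ml IFN-beta; after 1 hr add compound titrations (top 46 uM final). Incubate 24 hrs at 37 C, lyse 10 min with HiBiT reagent, read luminescence.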
# [13] = biological target: Cytochrome P450 3A4 (Homo sapiens) (UniProt P08684); test: Cytochrome P450 family 3 subfamily A member 4 (CYP3A4) small molecule antagonists: luciferase qHTS assay (AID 1645841; active = well fitted curve in the direction sought with a large enough effect in the repeat runs; inconclusive = weak or mixed curves; inactive = no such curve, though single readings can be large; an effect the other way counts as inactive or inconclusive; also: potency is read from the fitted curve at half-maximal effect; nearly all actives have a fitted effect of over 45% in size)
# UniProt P08684, sequence (P08684 whole entry, looked up): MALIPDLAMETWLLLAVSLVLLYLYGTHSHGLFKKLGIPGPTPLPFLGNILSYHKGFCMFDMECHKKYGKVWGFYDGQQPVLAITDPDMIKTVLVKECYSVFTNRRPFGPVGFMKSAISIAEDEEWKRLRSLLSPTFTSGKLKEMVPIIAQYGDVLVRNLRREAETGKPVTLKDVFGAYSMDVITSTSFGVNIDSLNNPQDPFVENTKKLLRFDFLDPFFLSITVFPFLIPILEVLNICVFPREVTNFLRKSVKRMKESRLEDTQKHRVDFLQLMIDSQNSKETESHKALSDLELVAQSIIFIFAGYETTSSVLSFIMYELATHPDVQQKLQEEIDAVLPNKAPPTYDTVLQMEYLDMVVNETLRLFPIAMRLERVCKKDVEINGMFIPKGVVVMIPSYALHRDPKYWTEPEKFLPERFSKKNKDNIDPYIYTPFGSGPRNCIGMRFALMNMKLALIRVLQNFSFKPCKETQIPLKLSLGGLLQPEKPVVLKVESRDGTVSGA
# Procedure, shortened: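 P450-Glo CYP3A4 enzyme with proluciferin substrate was preincubated with DMSO-dissolved compounds for 10 min at room temperature. NADPH regeneration solution started a 1 h reaction. Detection reagent stopped it, and luminescence was read after 20 min.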
# [14] = biological target: Cytochrome P450 2C9 (Homo sapiens) (UniProt P11712); test: Cytochrome P450 family 2 subfamily C member 9 (CYP2C9) small molecule antagonists: luciferase biochemical (cell-free) qHTS assay (AID 1645842; active = well fitted curve in the direction sought with a large enough effect in the repeat runs; inconclusive = weak or mixed curves; inactive = no such curve, though single readings can be large; an effect the other way counts as inactive or inconclusive; also: potency is read from the fitted curve at half-maximal effect; nearly all actives have a fitted effect of over 55% in size)
# UniProt P11712, sequence (P11712 whole entry, looked up): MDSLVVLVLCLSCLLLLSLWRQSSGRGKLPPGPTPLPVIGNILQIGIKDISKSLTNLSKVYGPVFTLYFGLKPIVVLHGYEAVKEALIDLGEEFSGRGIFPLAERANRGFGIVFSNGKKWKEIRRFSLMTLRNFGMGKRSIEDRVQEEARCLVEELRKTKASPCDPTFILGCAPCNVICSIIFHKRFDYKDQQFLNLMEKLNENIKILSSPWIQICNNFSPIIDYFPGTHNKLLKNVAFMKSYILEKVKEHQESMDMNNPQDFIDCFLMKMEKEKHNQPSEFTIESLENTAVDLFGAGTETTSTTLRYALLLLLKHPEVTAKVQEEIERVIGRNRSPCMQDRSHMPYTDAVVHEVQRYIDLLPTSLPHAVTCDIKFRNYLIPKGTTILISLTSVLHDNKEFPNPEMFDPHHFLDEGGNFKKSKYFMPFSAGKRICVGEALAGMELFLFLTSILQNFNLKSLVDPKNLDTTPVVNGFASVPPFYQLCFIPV
# Procedure, shortened: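 P450-Glo CYP2C9 system: proluciferin substrate with enzyme in mix containing 0.4% BSA, 10 min at room temperature, then NADPH regeneration solution added and incubated 1 h at 37C. Detection reagent stopped reaction; luminescence read after 20 min as RLU.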
# [15] = test system: Nanoluciferase (engineered Oplophorus gracilirostris luciferase); test: Primary Nanoluciferase (NLuc) qHTS assay for identification of artifact compounds. (AID 1845222);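 also: NLuc secreted into diluted conditioned medium of S16 cells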
# Procedure, shortened: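 Using secreted nanoluciferase in S16 culture medium (0.22 um filtered, 1:55 dilution), compounds were preincubated 15 min at RT. Signal was generated with Nano-Glo reagent (1:100) over 5 min.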
# [16] = test system: Tov112D; test: Primary qHTS to identify gynecologic anti-cancer compounds using libraries of approved drugs and bioactive compounds (AID 1345084); details: Gynecologic cancer cell panel viability, ATPlite luminescence, 48 h; series mostly up to 57.5 µM; also: nearly all actives have a fitted effect of over 55% in size; also: potency is read from the fitted curve at half-maximal effect; as to activity change, negative = cytotoxicity: % is scaled to controls: 0 for no effect and ±100 for the full control effect
# Procedure, shortened: as §1
# Tags tell the direction and shape of the fitted curve.
smiles,measurement,setting,value
C[C@@H]1CCC2C(C)(C)[C@H](O)[C@H](O)C[C@]2(C)[C@@]12Cc1c(O)cc3c(c1O2)CN(CCCC(=O)O)C3=O (some centres undefined),Potency,[1],inactive
same,Potency,[2],"inconclusive: 2.92 µM [activator, full curve, poor fit]"
same,max response,[3],inactive: -1.57%
same,Potency,[4],"inconclusive: 0.126 µM [rising, full curve, poor fit]"
same,Potency,[5],inactive
Cc1cc(=O)oc2cc(NC(=O)[C@H](CCC(=O)O)NC(=O)[C@H](CC(C)C)NC(=O)[C@H](CC(C)C)NC(=O)OCc3ccccc3)ccc12 (Cbz-Leu-Leu-Glu-{AMC}),Potency,[6],inactive
same,Potency,[7],inactive
same,Potency,[8],"inconclusive: 15.8 µM [inhibitor, single point]"
same,Potency,[9],active: 22.7 µM
same,Potency,[10],active: 22.7 µM
same,max response,[3],inactive: -3.22%
same,Potency,[4],inactive
COC(=O)c1ccnc(-c2cc(C(=O)Nc3ccc(C4(N)CC4)cc3)ccn2)c1,Potency,[6],inactive
same,Potency,[11],"inconclusive: 29 µM [inhibitor, single point]"
same,Potency,[1],"inconclusive: 23 µM [inhibitor, partial curve, poor fit]"
same,Potency,[3],"inconclusive: 18.4 µM [inhibitor, partial curve, poor fit]"
same,Potency,[4],inactive
Cc1cccc(-c2nn3c(c2-c2ccnc4ccc(C(N)=O)cc24)CCC3)n1,Potency,[12],inactive
same,Potency,[13],"inconclusive: 37.9 µM [falling, single point]"
same,Potency,[14],"inconclusive: 37.9 µM [inhibitor, single point]"
same,Potency,[15],inactive
same,max response,[3],inactive: 3.73%
same,Potency,[4],inactive
same,Potency,[16],"inconclusive: 8.91 µM [rising, partial curve, poor fit]"
